{"source": "PubChem BioAssay (Tox21)", "note": "Where “and” joins values, the source holds several entries; their conditions need not be identical. Equal values may be shown once. This list was built around the results that the source calls inconclusive (neither active nor inactive); the mix of calls is not that of the screen. Entries that show only a call come without a potency. Potencies of inconclusive entries are doubtful fits and often do not repeat. Calls of active or inactive are those of the source. The call rests on the fitted dose curve; in most records, active means well fitted curve in the direction sought with a large enough effect in the repeat runs; inconclusive means weak or mixed curves; inactive means no such curve, though single readings can be large; an effect the other way counts as inactive or inconclusive. Potency means the concentration at half of the fitted maximal effect; tags describe the fitted curve by direction and shape.", "data": [{"tested_on": "not listed separately", "test": "qHTS assay to identify small molecule antagonists of the progesterone receptor (PR) signaling pathway - cell viability counter screen (AID 1346798); further: nearly all actives have a fitted effect of over 50% in size", "conditions": "PR-UAS-bla HEK293T viability, CellTiter-Glo luminescence, 16 h; series mostly up to 92.4 µM", "outline": "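Viability was determined by ATP-based luminescence (CellTiter-Glo) in PR-UAS-bla HEK293T cells cultured in 2% charcoal-stripped serum and incubated 16 hr with compounds under R5020 stimulation.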", "values": [{"smiles": "CCCCC(CC)COCCO", "note": "(configuration not stated)", "Potency": "inactive"}, {"smiles": "CCCCCCCC/C=C\\CCCCCCCC(=O)OC[C@@H](O)[C@H]1OC[C@H](O)[C@H]1O", "Potency": "inactive"}, {"smiles": "CCCCCCCCCCCCCCCCCCOCC(O)CO", "note": "(configuration not stated)", "Potency": "inactive"}, {"smiles": "Cc1cc(=O)n(-c2ccccc2)n1C", "Potency": "inactive"}, {"smiles": "CC(=O)Oc1ccc(C(C)=O)cc1", "Potency": "inconclusive: 1.42 µM [cytotoxic, single point]"}, {"smiles": "Nc1ccc(C(=O)O)c(O)c1", "Potency": "inconclusive: 9.44 µM [rising, full curve, poor fit]"}, {"smiles": "CCCC(=O)O[C@]1(C(=O)CC)CC[C@H]2[C@@H]3CCC4=CC(=O)CC[C@]4(C)[C@H]3[C@@H](O)C[C@@]21C", "Potency": "inactive"}, {"smiles": "C[C@H]1NCc2cc(-c3ccc4c(=O)c(C(=O)O)cn(C5CC5)c4c3OC(F)F)ccc21", "activity change, negative = cytotoxicity": "inactive: -2.19% [at 18.9 µM]"}, {"smiles": "CCCCCCC(C)(C)S", "Potency": "inactive"}, {"smiles": "Cc1cc(S(=O)(=O)O)ccc1N=Nc1c(O)ccc2ccccc12", "Potency": "inconclusive: 61.1 µM [rising, partial curve, poor fit]"}, {"smiles": "C=C[Si](OC(C)=O)(OC(C)=O)OC(C)=O", "Potency": "inactive"}, {"smiles": "CCNc1ccccc1", "Potency": "inactive"}, {"smiles": "CCCCCc1ccco1", "Potency": "inactive"}, {"smiles": "OCCc1ccccc1", "Potency": "inconclusive: 6.68 µM [cytotoxic, full curve, poor fit]"}, {"smiles": "COC(C)OC", "Potency": "inactive"}, {"smiles": "NCCCCCCN", "Potency": "inactive"}, {"smiles": "CCCCCCCCCCCCCCCCBr", "activity change, negative = cytotoxicity": "inactive: 0.653% [at 18.9 µM]"}, {"smiles": "O=C(O)CO", "Potency": "inactive"}, {"smiles": "CC[N+](CC)(CC)CCOC(=O)C(C1CCCC1)C1CCCC1", "Potency": "inactive"}, {"smiles": "CCCCCCOC(=O)C(C)CC", "note": "(configuration not stated)", "Potency": "inconclusive: 2.17 µM [rising, partial curve]"}, {"smiles": "O=S(=O)(O)c1ccccc1O", "Potency": "inactive"}, {"smiles": "CCSC(=O)N(CC(C)C)CC(C)C", "Potency": "inactive"}, {"smiles": "CC(=O)/C=C/c1ccco1", "Potency": "inactive"}, {"smiles": "C/C=C(C)/C=C/C=C(C)C", "Potency": "inactive"}, {"smiles": "Nc1cc([N+](=O)[O-])ccc1C(=O)O", "Potency": "inconclusive: 1.76 µM [rising, partial curve, poor fit]"}, {"smiles": "CC(C)(C)NCC(O)COc1ccccc1OCC1CCCO1", "note": "(configuration not stated)", "Potency": "inactive"}, {"smiles": "CCOC(=O)C(C)O", "note": "(configuration not stated)", "Potency": "inactive"}, {"smiles": "CC(N=C(NC#N)Nc1ccncc1)C(C)(C)C", "note": "(configuration not stated)", "Potency": "inconclusive: 2.98 µM [cytotoxic, single point]"}, {"smiles": "CC(=O)[C@H]1CC[C@H]2[C@@H]3C=CC4=CC(=O)CC[C@@]4(C)[C@@H]3CC[C@]12C", "Potency": "inconclusive: 29.8 µM [rising, single point]"}, {"smiles": "C=CCn1c(=O)n(CC=C)c(=O)n(CC=C)c1=O", "Potency": "inactive"}, {"smiles": "C1COC(NC(C2CC2)C2CC2)=N1", "Potency": "inactive"}, {"smiles": "CCCC(O)C(CC)CO", "note": "(configuration not stated)", "Potency": "inconclusive: 2.98 µM [cytotoxic, single point]"}, {"smiles": "COc1ccc(O)cc1", "Potency": "inactive"}, {"smiles": "Cc1c(O)cccc1O", "Potency": "inactive"}, {"smiles": "Cc1cc2nc3ccc(=[N+](C)C)cc-3sc2cc1N", "Potency": "inconclusive: 11.9 µM [rising, partial curve, poor fit]"}, {"smiles": "CC(C)CC(=O)N[C@H](C(=O)N[C@H](C(=O)N[C@@H](CC(C)C)[C@@H](O)CC(=O)N[C@@H](C)C(=O)N[C@@H](CC(C)C)[C@@H](O)CC(=O)O)C(C)C)C(C)C", "Potency": "inactive"}, {"smiles": "CCCCCCCC", "Potency": "inconclusive: 68.1 µM [rising, single point]"}, {"smiles": "CSSc1ccoc1C", "Potency": "inactive"}, {"smiles": "CCCCC(CC)COC(=O)C(C#N)=C(c1ccccc1)c1ccccc1", "note": "(configuration not stated)", "Potency": "inconclusive: 43.3 µM [rising, partial curve, poor fit]"}]}, {"tested_on": "not listed separately", "test": "Caspase-3/7 induction in CHO-K1 cells by small molecules, qHTS cell viability counter screen (AID 1346979); further: nearly all actives have a fitted effect of over 35% in size", "conditions": "CellTiter-Fluor fluorescence, 17 h; activity change, negative = cytotoxicity: at 92.4 µM (top of the series)", "outline": "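Seeding: 1,500 CHO-K1 cells/well. Rest: 5hr, 37C. Treatment: compounds in DMSO, 16hr. Read: CellTiter-Fluor, 1hr, fluorescence.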", "values": [{"smiles": "CCCCC(CC)COCCO", "note": "(configuration not stated)", "Potency": "inactive"}, {"smiles": "CCCCCCCC/C=C\\CCCCCCCC(=O)OC[C@@H](O)[C@H]1OC[C@H](O)[C@H]1O", "Potency": "inactive"}, {"smiles": "Nc1ccc(C(=O)O)c(O)c1", "Potency": "inactive"}, {"smiles": "C/C=C(C)/C=C/C=C(C)C", "Potency": "inconclusive: 76 µM [cytotoxic, single point] and inconclusive: 68.6 µM [cytotoxic]"}, {"smiles": "CC(C)CC(=O)N[C@H](C(=O)N[C@H](C(=O)N[C@@H](CC(C)C)[C@@H](O)CC(=O)N[C@@H](C)C(=O)N[C@@H](CC(C)C)[C@@H](O)CC(=O)O)C(C)C)C(C)C", "Potency": "inactive"}]}, {"tested_on": "not listed separately", "test": "Caspase-3/7 induction in HepG2 cells by small molecules, qHTS cell viability counter screen (AID 1346981); further: nearly all actives have a fitted effect of over 30% in size", "conditions": "CellTiter-Fluor fluorescence, 17 h; series mostly up to 92.4 µM", "outline": "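Steps: seed 2,000 HepG2 cells per well; incubate 5 hr at 37 C; pin-add compounds in DMSO; incubate 16 hr; add CellTiter-Fluor; after 1 hr at 37 C and 5% CO2, read fluorescence.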", "values": [{"smiles": "Cc1cc(=O)n(-c2ccccc2)n1C", "Potency": "inconclusive: 30.6 µM [cytotoxic, partial curve, poor fit]"}, {"smiles": "CCCCCCC(C)(C)S", "Potency": "inconclusive: 61.6 µM [rising, partial curve, poor fit]"}, {"smiles": "Cc1cc(S(=O)(=O)O)ccc1N=Nc1c(O)ccc2ccccc12", "Potency": "active: 30.6 µM"}, {"smiles": "Nc1cc([N+](=O)[O-])ccc1C(=O)O", "Potency": "inconclusive: 2.48 µM [cytotoxic, partial curve]"}, {"smiles": "CC(N=C(NC#N)Nc1ccncc1)C(C)(C)C", "note": "(configuration not stated)", "Potency": "inactive"}, {"smiles": "CCCCCCCC", "Potency": "inactive"}]}, {"target": "Nuclear receptor subfamily 1 group I member 2 (Homo sapiens) (UniProt O75469)", "sequence (O75469 whole entry, looked up)": "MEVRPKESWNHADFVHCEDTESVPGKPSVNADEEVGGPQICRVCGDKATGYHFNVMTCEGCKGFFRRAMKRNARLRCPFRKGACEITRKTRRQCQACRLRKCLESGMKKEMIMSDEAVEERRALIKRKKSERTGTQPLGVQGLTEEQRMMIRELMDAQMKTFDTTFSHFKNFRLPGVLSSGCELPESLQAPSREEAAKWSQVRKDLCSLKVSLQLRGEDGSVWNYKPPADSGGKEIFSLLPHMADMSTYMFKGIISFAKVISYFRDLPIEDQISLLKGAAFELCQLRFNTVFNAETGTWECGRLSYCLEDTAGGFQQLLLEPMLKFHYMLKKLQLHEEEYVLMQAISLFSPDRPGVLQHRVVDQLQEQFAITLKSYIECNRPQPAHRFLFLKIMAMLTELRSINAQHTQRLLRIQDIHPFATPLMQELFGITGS", "test": "Human pregnane X receptor (PXR) small molecule agonists, qHTS assay (AID 1346982); further: nearly all actives have a fitted effect of over 35% in size", "conditions": "PXR-Luc HepG2, CYP3A4 luciferase reporter, 24 h; series mostly up to 92.4 µM", "outline": "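Agonist mode qHTS: PXR-Luc HepG2 cells plated 5 hr before DMSO-dissolved compounds were pinned in, cultured 24 hr at 37 C, 5% CO2; ONE-Glo luminescence readout.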", "values": [{"smiles": "CCCCC(CC)COCCO", "note": "(configuration not stated)", "Potency": "inactive"}, {"smiles": "CC(=O)Oc1ccc(C(C)=O)cc1", "Potency": "inactive"}, {"smiles": "CCCCCc1ccco1", "Potency": "inconclusive: 35.5 µM [activator, partial curve]"}, {"smiles": "O=C(O)CO", "Potency": "inactive"}, {"smiles": "Nc1cc([N+](=O)[O-])ccc1C(=O)O", "Potency": "inconclusive: 68.6 µM [activator, partial curve, poor fit]"}, {"smiles": "COc1ccc(O)cc1", "Potency": "inconclusive: 54.5 µM [activator, partial curve, poor fit]"}, {"smiles": "CSSc1ccoc1C", "Potency": "inconclusive: 38.4 µM [activator, partial curve]"}]}]}
